First the molecules themselves.
B1: LINE1-mini (parent)
chain: GGCAGAGCUCAACACAGCGUGGCAAAGUGGCUGUGGCUAGACUGCC

Read counts are not given, so values of variants with three or more changes are uncertain.

This data set covers variants of B1. Kind of data set: self-cleavage, relative activity (ratio to wild type); higher = more cleavage; in vitro, sequencing; the parent is a self-cleaving ribozyme.
Regarding A4G C15G U20A G27A C42U, the self-cleavage came to 0.05.
The same measure for A4C G5C G17U U32A: 0.1.
As to G5U A24G G27C, the self-cleavage was determined as 0.09.
C8A U20G C31A U32A A41C: the self-cleavage was 0.08.
As for C8U C13A G29U, the figure is 0.01.
As for A6C G7A U20C C42A, the figure is 0.1.
For G2C C8A A39C C42A U43C, the self-cleavage is 0.2.
On to C23U U38G C42A U43G, for which the self-cleavage was 0.04.
As for C10A A14G C31U U32C, the figure is 0.
The same measure for C10G G21A U34A G35A G40A: 0; for C3A C15U A24U U32A: 0.08.
Turning to A4G A16C U20C C31A U32C U43A, the self-cleavage is 0.48.
As for A6C G7C G17C U32C G33A U43C, the self-cleavage was 0.02.
For the variant G2U A25U G35U C45G, the self-cleavage came out at 0.05.
Take C3G C42G C45G: the self-cleavage is 0.18.
Take C18A A25U C31U: the self-cleavage worked out at 0.01.
The same measure for A4U G7U A11G A14C C23A G30A C31U C42G: 0.01; for A4G C13A G33U U34G: 0.12; for G1C U9A C13U C37A: 0.
The same measure for C8U U20G G30U C31A: 0.16; for C3A A16U G17C G36U C46U: 0.14; for G5U U20G U38C: 0.03.
As for G1C A4C G5A C23G U28G G35C U38C, the figure is 0.
Take G1A C3G C10A C42U: the self-cleavage was found to be 0.04.
The same measure for G1U C3G G19A: 0.06; for A11U A24G U28C C42A: 0.
As for A6U A12G G44U, the figure is 0.02; as for C23G G29C A39U, 0.02.
The same measure for A16C G17A G21A G33A: 0.05; for A26U C31A C46A: 0.02; for A4G G17C U20C: 0.31.
With A12G C23U A26G G36U C46U, the self-cleavage was 0.01.
The same measure for G22A A25U A39U G40U: 0.28; for C13G G22C A25C G29U G30C C31U U34A: 0.01.
As for G2C G27A A41C, the figure is 0.12.
As to C10U A14G C18G, the self-cleavage amounted to 0.02.
As for G1A G5A G17A C37U, the figure is 0.14.
On to A11U A24U G35A, for which the self-cleavage was determined as 0.04.
As for A4U U28C A41U, the figure is 0.23; as for A14U C31A G36A, 0.1; as for A12C G17U C45A, 0.
As for C3U A12G A25C G30U, the figure is 0.04.
On to A14C U34G U38G, for which the self-cleavage worked out at 0.
In the case of G7U U9A C45G, the self-cleavage came to 0.21.
C8U C13G G22U G30A G40A A41U G44U: the self-cleavage stood at 0.15.
For the variant A12G U20A G30A C37G, the self-cleavage was determined as 0.
The same measure for A6C A16U U28G G30C C46U: 1.13.
The same measure for C3U G5C A11C C23A C31G: 0.01.
Turning to G1C A6C U34A, the self-cleavage was 0.01.
As for C10G G27C G30U, the figure is 0.35; as for A6C C23G C31G, 0.03; as for C10U G17A U20G C23U, 0.03.
On to A11U C31U A39U C45G, for which the self-cleavage is 0.02.
On to A12G A16U U34A, for which the self-cleavage is 0.02.
The same measure for U34G C42A C45A: 0.01; for A4G A16C C18G: 0.07.
The same measure for G1C C13A A39C: 0.02.
The same measure for A11C U28A C46U: 0.02; for G2A G21U C23G G33U: 0.21; for C8A C23A G36C: 0.14.
Turning to G2A G7C C8A A11C G19A, the self-cleavage worked out at 0.03.
In the case of G2A G7A A24U, the self-cleavage came out at 1.49.
The same measure for G1U A16C U43C C45A: 0.05.
As to G7U G21C G40A, the self-cleavage amounted to 0.15.
The same measure for A16G C31U C37A: 0.03; for U9C A11U C23U A41U U43A: 0.
Turning to G2U U43A C46A, the self-cleavage was found to be 0.14.
Consider A6U A25C A26C, for which the self-cleavage is 0.69.
C8U G17A G35A: the self-cleavage is 0.02.
For the variant G1C G5A C13U G17U, the self-cleavage stood at 0.05.
Regarding G7A A12G G40U, the self-cleavage turned out to be 0.09.
The same measure for C18U C37G C45G: 0.02.
With G1C G2U G29U, the self-cleavage worked out at 0.22.
As for C13U C18U G22U C37G, the figure is 0.02; as for C8G U9G G29U U32A A41U, 0.01; as for G1A U9A A26U, 0.04.
Consider G1C G17C G33A, for which the self-cleavage came out at 0.04.
Take C8G C15A C31G: the self-cleavage was 0.
The same measure for C15A G17A C46A: 0.02; for C31U C42U C46A: 0.35.
Turning to G2C C3U C8A, the self-cleavage is 0.06.
G2A C31U C37G G40C: the self-cleavage came out at 0.04.
With C8A G21U C37G, the self-cleavage amounted to 0.07.
The same measure for U9C C15U U28C C31G: 0.04.
The same measure for A26G C45G C46A: 0.13.
As for G1U U32G C37U, the figure is 0.02.
C3A G7C G21U: the self-cleavage stood at 0.06.
As for G7U C8A U9A A26C U28C G33A, the figure is 0.47; as for A11C C18G U32C, 0.02.
The same measure for G19A G30A C46A: 2.38; for A12G G29C C45A: 0.01.
For the variant G2U A6G A24G G27A G33U, the self-cleavage is 0.03.
On to C15A U20G G35U C46G, for which the self-cleavage was 0.01.
As to A4C G30C C31A C37U C42G, the self-cleavage is 0.49.
As for G5A A6G U32C, the figure is 0.03; as for C8A A39G G40U C46A, 0.05; as for A14U G19C G36U, 0.02.
The same measure for A12U C15A A16U: 0.02.
The same measure for G1U C8U G17A G44U: 0.08; for G7A C15U A16C G17A A25G G36C: 0.04; for A16G A26G G29A C46G: 0.99.
As for G5U A11U A39G, the self-cleavage turned out to be 0.
As for C3A C8A C15A U34C C42U G44C, the figure is 0.23.
The same measure for C8A G17C C18A G19A A24U A26U G29A C31A: 0; for U9G A11C U28G C46G: 0; for C8A C18G G33A G35A C42A: 0.05.
The same measure for G5C A24C A39U: 0.02.
With G33C C42G G44C C46A, the self-cleavage is 0.
The same measure for G17U C23U A24G: 0.03; for C23U G27A G33U A39G: 0.24; for A24U A25C U28A: 0.48.
The same measure for A4U C13G A26C C45G: 0.09; for G5A C8A G19C A41C U43G: 0.18.
The same measure for A4C A25U U32A: 0.07; for A11U G22U G30A U32C: 0.02; for A16U C18U G35U: 0.07.
For A4U G17C G35C U38A, the self-cleavage came out at 0.18.
Consider G2U C10G A12G, for which the self-cleavage was found to be 0.02.
Take A11G C15G G30C G40A: the self-cleavage was determined as 0.01.
Regarding A11G C23A A25G G29U, the self-cleavage was 0.02.
In the case of C18A U20C A26U G33A, the self-cleavage was determined as 0.
As to G17U U20G C23G U28C, the self-cleavage was determined as 0.05.
As for G5C C31U A41C, the figure is 0.01.
As for G1C C3A G21A, the figure is 0.39; as for C3U U9A C10G C45A, 0.01; as for C3U U9A A11C G29A G30C U38C, 0.
As for C3G A6G C15A G17C A25U G30A G40A U43A, the figure is 0.07; as for G2C A12C C23A C31G G36U A39U, 0.01.
C10G A11C G27A U28G C45U: the self-cleavage stood at 0.01.
The same measure for G2U G17U G29C G36C G44A: 0.01.
As for G2U G7U A26C, the figure is 0.02.
Turning to A6C C8A A12U G33A, the self-cleavage worked out at 0.02.
With A6U C13A C42U, the self-cleavage was 0.1.
As for A6C C23A A26U C45A, the figure is 0.25.
Turning to G17U G33A U34G C46G, the self-cleavage was 0.01.
As for C3A C8U C31U G36A, the figure is 0.52; as for C15U G35A C37U C42A, 0.01; as for G5A C13G G33U C42G, 0.07.
As to G17U C31U U38C C42U, the self-cleavage was 0.02.
As for G35C G36A C37U U43C, the self-cleavage amounted to 0.2.
As for G1A A25G C37G C42A C45A, the figure is 0.06.
As for G2A G5A G7A C10U U28G C45G, the figure is 0.19; as for C10G C13A G29U, 0.01; as for A4G A39G G44A, 0.24.
The same measure for A4U G5C A11G G33A: 0.05.
As to G2A U34G A41G, the self-cleavage was found to be 0.08.
As for G2A G7A G29U U34G G36A C37A, the self-cleavage stood at 0.02.
Regarding G2C C18U A25C C31U, the self-cleavage was found to be 0.15.
As for C31U G33U C42U, the figure is 0.11.
The same measure for A12G C31G C45G: 0.02; for C3U A16G U32G: 0.1; for A14U G22A C23G U38A C42G: 0.02.
For the variant G2U C8A G17U C45A, the self-cleavage is 0.04.
Take G2C C3U A4U C8U: the self-cleavage was determined as 0.7.
As for C18U U20A A24U A26U, the figure is 1.07; as for C18A G30A C45A, 0.22.
Turning to G1C G2U C10G G17C C18A C31A, the self-cleavage came out at 0.01.
In the case of C8U A11G U20G, the self-cleavage was 0.02.
As for G22A C31G U32G, the figure is 0.06; as for G1A G27C G30U, 0.19.
Turning to G2C C10G U20A G35C G36C G40U C45U C46U, the self-cleavage is 0.
As for C3U A14U C23A, the figure is 0.06; as for C13G U28G C37U A41U U43G C46G, 0.03; as for A11U A16U G17C A25G G36C C46G, 0.01.
The same measure for G7U A14G C15G G17C G19A G44C: 0.09; for G21A G35C A39U: 0.08; for G5U U9A G17C U38A A39G C42G: 0.03.

Values taken from the RNAGym collection of RNA variant scans (doi:10.7554/elife.90254).
